Data: patent publication US11285169B2, “Methods for modulating chemotherapeutic cytotoxicity” (The United States of America, as represented by the …, priority 2013, dated 2022)
Structures can show the parent of a compound that is named as a salt. Where two headings read alike, the source gives them in different places.

Assays:
[1] = test system: CD47 deficient (CD47 KO) Jurkat T cells; conditions: for Maximal Response CD47 KO (RLU): CD47 KO Jurkat T cells, 10^-9 to 10^-4 M, CellTiter-Glo
[2] = test system: CD47 deficient (CD47 KO) Jurkat T cells; assay: cells; conditions: Homo sapiens, 48 h, read-out: AC50 (μM) CD47 KO
WT Jurkat cells [3] = assay: cells; conditions: Homo sapiens, 48 h, read-out: AC50 (μM) WT
WT Jurkat cells [4] = conditions: WT Jurkat cells, 48 hours, 10^-9 to 10^-4 M, CellTiter-Glo
[5] = log AC50 difference CD47 KO minus WT

Row | Structure (SMILES) | Δ LogAC50 CD47KO-WT [1, 5] | AC50 [2] [µM] | AC50 (WT Jurkat cells [3]) [µM] | cytotoxicity in CD47 deficient versus wild-type Jurkat cells (FIGS. 14, 15) ([1]; 48 hours, increasing concentrations) | Maximal Response CD47 KO (RLU) ([1]; 48 hours) | Maximal Response WT (RLU) (WT Jurkat cells [4]) | inhibitory potency (AC50), CD47-deficient versus WT Jurkat T cells (in words) ([1]; 48 hours) | maximal inhibition of viability, CD47-deficient versus WT Jurkat T cells (in words) ([1]; 48 hours) | Δ LogAC50 CD47KO-WT [1]
1 | CCCCN(CCCC)CCC(O)c1cc2c(Cl)cc(Cl)cc2c2cc(C(F)(F)F)ccc12 (stereo not shown) [Halofantrine] | 1.55 | 16.6 | 0.469 |  |  |  |  |  | 
2 | CC[C@@]1(O)C(=O)OCc2c1cc1n(c2=O)Cc2cc3ccccc3nc2-1 [Camptothecin] | 1.3 | 0.186 | 0.0094 | protected | 37.178 | 9.64 |  |  | 
3 | CN(C)CC[C@H](CSc1ccccc1)Nc1ccc(S(=O)(=O)NC(=O)c2ccc(N3CCN(Cc4ccccc4-c4ccc(Cl)cc4)CC3)cc2)cc1[N+](=O)[O-] [ABT-737] | 0.9 | 14.8 | 1.87 |  | 29.852 | 1.054 |  |  | 
4 | Nc1nc(Cl)nc2c1ncn2[C@H]1C[C@H](O)[C@@H](CO)O1 [Cladribine] | 0.85 | 1.05 | 0.148 |  | 59.738 | 21.67 | significant decrease in inhibitory potency | significantly decreased maximal inhibition of viability | 
5 | Cc1cc(O)c2c3c4c(cc(O)c13)C(C)(C)C(=O)c1c(O)cc(O)c(c1-4)C2=O [Resistomycin] | 0.6 | 4.69 | 1.18 |  |  |  |  |  | 
6 | Cc1c(C(=O)Nc2ccc(N3C[C@@H](C)O[C@@H](C)C3)nc2)cccc1-c1ccc(OC(F)(F)F)cc1 [NVP-LDE-225] | 0.7 | 18.7 | 3.72 |  |  |  |  |  | 
7 | COC(=O)Nc1nc2ccc(Sc3ccccc3)cc2[nH]1 [Fenbendazole] | 0.55 | 2.09 | 0.59 |  |  |  |  |  | 
8 | C=CC(=O)Nc1ccc2ncnc(Nc3ccc(OCc4cccc(F)c4)c(Cl)c3)c2c1 [AST-1306] | 0.6 | 1.05 | 0.264 |  |  |  |  |  | 
9 | C=C[C@H]1CN2CC[C@H]1C[C@H]2[C@H](O)c1ccnc2ccccc12 [Cinchonidine] | 0.8 | 20.9 | 3.32 |  |  |  |  |  | 
10 | COc1cc([C@@H]2c3cc4c(cc3[C@@H](O[C@@H]3O[C@@H]5CO[C@@H](c6cccs6)O[C@H]5[C@H](O)[C@H]3O)[C@H]3COC(=O)[C@H]23)OCO4)cc(OC)c1O [Teniposide] | 1.4 | 4.18 | 0.166 |  |  |  |  |  | 
11 | CC[C@@H]1C(=O)N(C)c2cnc(Nc3ccc(C(=O)N[C@H]4CC[C@H](N5CCN(CC6CC6)CC5)CC4)cc3OC)nc2N1C(C)C [Volasertib] | 0.7 | 0.332 | 0.0662 |  |  |  |  |  | 
12 | O=C1c2c(O)ccc(O)c2C(=O)c2c(NCCNCCO)ccc(NCCNCCO)c21 [Mitoxantrone] | 1.05 | 1.87 | 0.166 |  |  |  |  |  | 
13 | COc1cc2c(cc1-c1c(C)noc1C)ncc1[nH]c(=O)n([C@H](C)c3ccccn3)c12 [I-BET151] | 0.55 | 20.9 | 5.9 |  |  |  |  |  | 
14 | Sc1ncnc2nc[nH]c12 [6-mercaptopurine] | 0.5 | 1.66 | 0.526 |  |  |  | significant decrease in inhibitory potency |  | 
15 | Cc1cc(C2CCCCC2)n(O)c(=O)c1 [Ciclopirox] | 1.15 | 14.8 | 1.05 |  |  |  |  |  | 
16 | CC1(C)CCC(c2ccc(Cl)cc2)=C(CN2CCN(c3ccc(C(=O)NS(=O)(=O)c4ccc(N[C@H](CCN5CCOCC5)CSc5ccccc5)c(S(=O)(=O)C(F)(F)F)c4)cc3)CC2)C1 [Navitoclax] | 1.4 | 5.9 | 0.235 |  |  |  |  |  | 
17 | CN[C@H]1CN(c2ccc3c(=O)c(C(=O)O)cn(-c4nccs4)c3n2)C[C@@H]1OC [Vosaroxin] | 1.05 | 12.9 | 1.15 |  |  |  |  |  | 

Row | Structure (SMILES) | Δ LogAC50 CD47KO-WT [1, 5] | AC50 [2] [µM] | AC50 (WT Jurkat cells [3]) [µM] | cytotoxicity in CD47 deficient versus wild-type Jurkat cells (FIGS. 14, 15) ([1]; 48 hours, increasing concentrations) | Maximal Response CD47 KO (RLU) ([1]; 48 hours) | Maximal Response WT (RLU) (WT Jurkat cells [4]) | inhibitory potency (AC50), CD47-deficient versus WT Jurkat T cells (in words) ([1]; 48 hours) | maximal inhibition of viability, CD47-deficient versus WT Jurkat T cells (in words) ([1]; 48 hours) | Δ LogAC50 CD47KO-WT [1]
18 | COc1cc2c(Nc3ccc(Cl)c(Cl)c3F)ncnc2cc1OC[C@@H]1C[C@@H]2CN(C)C[C@@H]2C1 [XL-647] | 0.5 | 11.8 | 3.72 |  |  |  |  |  | 
19 | CC(C)Oc1ccc(C(=O)N[C@H](CNC(=O)CN(C)C)Cc2ccc(-c3cn4cccc([C@H](C)O)c4n3)cc2)cc1Cl [GSK-923295] | 1.25 | 4.69 | 0.264 |  |  |  |  |  | 
20 | C[C@H]1[C@H](OC(=O)CCC(=O)O)O[C@@H]2O[C@@]3(C)CC[C@H]4[C@H](C)CC[C@@H]1[C@@]24OO3 [Artesunate (AS), Artesunate] | 0.8 | 14.8 | 2.35 |  |  |  |  |  | 
21 | CCCOc1ccc2nc(NC(=O)OC)[nH]c2c1 [Oxibendazole] | 2.05 | 0.59 | 0.0053 |  |  |  |  |  | 
22 | CCN1CCN(Cc2ccc(-c3cc4c(N[C@H](C)c5ccccc5)ncnc4[nH]3)cc2)CC1 [AEE-788] | 1.05 | 20.9 | 1.87 |  |  |  |  |  | 
23 | CC[C@H](CC#N)OC(=O)N[C@@H](C)c1cccc(NC(=O)Nc2ccc(-c3cnco3)c(OC)c2)c1 [AVN-944] | 1.35 | 8.33 | 0.372 |  |  |  |  |  | 
24 | Cc1cc(Nc2nc(N[C@@H](C)c3ccc(F)cc3)c(C#N)cc2F)[nH]n1 [AZ-960] | 1.25 | 14.8 | 0.833 |  |  |  |  |  | 
25 | CO[C@H]1/C=C\C=C(/C)C(=O)NC2=CC(=O)C(NCCN(C)C)=C(C[C@@H](C)C[C@H](OC)[C@H](O)[C@@H](C)/C=C(\C)[C@@H]1OC(N)=O)C2=O [Alvespimycin hydrochloride] | 0.6 | 0.662 | 0.166 |  |  |  |  |  | 
26 | Cn1cnc(N)c2ncnc1-2 [3-Methyladenine] | 0.65 | 0.59 | 0.132 |  |  |  |  |  | 
27 | N[C@@H](Cc1ccc(N(CCCl)CCCl)cc1)C(=O)O [Melphalan] |  | 23.5 | 1.48 |  |  |  |  |  | 1.2
28 | CC1(COc2ccc3c(c2)ncn3-c2ccc3cccc(N4CCC(N)CC4)c3n2)COC1 [Crenolanib] | 0.75 | 14.8 | 2.64 |  |  |  |  |  | 
29 | CC(C)(C)c1[nH]cnc1/C=c1\[nH]c(=O)/c(=C/c2ccccc2)[nH]c1=O [Plinabulin] | 1.05 | 2.15 | 0.191 |  |  |  |  |  | 
30 | CC(=O)[C@]1(O)Cc2c(O)c3c(c(O)c2[C@@H](O[C@H]2C[C@H](N)[C@H](O)[C@H](C)O2)C1)C(=O)c1ccccc1C3=O [Idarubicin hydrochloride] | 0.65 | 0.662 | 0.148 |  |  |  |  |  | 
31 | COC1=CC(c2cc3ccccc3[nH]2)=N/C1=C\c1[nH]c(C)cc1C [Obatoclax] | 0.6 | 1.48 | 0.372 |  |  |  |  |  | 
32 | Cc1ccc(C(=O)N(CCCN)[C@@H](c2nc3cc(Cl)ccc3c(=O)n2Cc2ccccc2)C(C)C)cc1 [Ispinesib] | 4.5 | 59 | 0.0019 |  |  |  |  |  | 
33 | Nc1ccccc1NC(=O)c1ccc(CNC(=O)OCc2cccnc2)cc1 [Entinostat] | 0.5 | 2.64 | 0.833 |  |  |  |  |  | 
34 | COc1ccc(-c2ccc3ncc4c(c3c2)n(-c2ccc(N3CCNCC3)c(C(F)(F)F)c2)c(=O)n4C)cn1 [NVP-BGT226] | 0.9 | 0.526 | 0.0662 |  |  |  |  |  | 
